Measured values reported in PubChem BioAssay AID488969 (Vanderbilt High Throughput Screening Facility, 2010).
Over roughly 110,000 compounds, “z-score” has its median near -0.1; the highest 2% begin near 2. The list shows a part of the results. The source made the active and inactive calls.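 Rule for the calls: active = z-score in the third read window above 3 or below -3; inactive = the rest.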

Target: Metabotropic glutamate receptor 8 (Rattus norvegicus) (UniProt P70579)
Assay: rat mGluR8 modulators via GIRK flux, primary screen, cell-based, thallium flux, HTS (AID 488969)
Conditions: HEK293 rat mGluR8, GIRK (G protein-gated inwardly rectifying potassium channel) thallium flux, FluoZin2; at 10 µM; stronger effect = higher value; submaximal glutamate (EC20) added with thallium

UniProt P70579, sequence (P70579 whole entry, looked up): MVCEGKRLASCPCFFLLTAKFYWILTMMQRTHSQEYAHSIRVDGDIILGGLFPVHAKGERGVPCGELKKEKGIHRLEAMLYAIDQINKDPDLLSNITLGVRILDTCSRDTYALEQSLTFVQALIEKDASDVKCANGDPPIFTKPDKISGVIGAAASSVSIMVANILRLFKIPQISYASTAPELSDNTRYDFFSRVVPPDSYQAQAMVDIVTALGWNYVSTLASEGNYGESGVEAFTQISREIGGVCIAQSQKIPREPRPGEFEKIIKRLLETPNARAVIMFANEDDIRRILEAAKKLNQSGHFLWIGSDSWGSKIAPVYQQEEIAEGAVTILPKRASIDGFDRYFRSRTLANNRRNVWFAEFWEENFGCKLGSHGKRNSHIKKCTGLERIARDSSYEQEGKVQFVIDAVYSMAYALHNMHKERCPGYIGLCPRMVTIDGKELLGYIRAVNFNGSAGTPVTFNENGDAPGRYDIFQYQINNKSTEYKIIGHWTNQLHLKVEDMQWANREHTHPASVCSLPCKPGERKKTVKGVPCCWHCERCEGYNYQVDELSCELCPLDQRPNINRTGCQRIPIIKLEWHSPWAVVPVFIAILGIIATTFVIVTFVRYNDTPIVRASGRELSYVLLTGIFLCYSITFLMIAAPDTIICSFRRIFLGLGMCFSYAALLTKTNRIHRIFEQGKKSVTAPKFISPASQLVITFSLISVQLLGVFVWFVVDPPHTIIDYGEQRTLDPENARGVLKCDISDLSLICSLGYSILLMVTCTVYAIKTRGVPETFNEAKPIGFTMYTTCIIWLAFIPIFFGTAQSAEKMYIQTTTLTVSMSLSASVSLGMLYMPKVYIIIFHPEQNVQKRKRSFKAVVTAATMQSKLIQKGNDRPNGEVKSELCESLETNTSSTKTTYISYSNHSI

Going from `CC(C)OC(=O)C1=C(N)N2C(=O)CSC2=C(C(=O)OC(C)C)C1` to `CC1=C(C(=O)OC(C)C)C(C2CC=CCC2)NC(=O)N1` (centres undefined), the z-score rises from -0.11 to 0.893.

Compared with `CN(CC(=O)N1CC=C(c2ccccc2)CC1)S(=O)(=O)c1cnc[nH]1`, `O=C(c1cccc(-c2nnc(-c3ccccc3)o2)c1)N1CCCCCC1` is lower in z-score: 0.164 for the first, 0.0918 for the second.

Compared with `CCOC(=O)C1CCCN(C(=O)C2CC(=O)N(c3ccc(C)cc3)C2)C1` (centres undefined), `CCCCNC(=O)C1CCN(C(=O)Nc2ccc(C)cc2)CC1` is higher in z-score: -2.1 for the first, -0.231 for the second.

First: COc1ccc2c(c1)c1ncn(CCc3ccccc3)c(=O)c1n2C
Second: COc1ccc(CN2CCN(C)CC2)cc1OCc1ccccc1
The z-score of the first is higher: 0.684 for the first, 0.342 for the second.

Compared with `CN(C)/C=C1\N=C(c2cccs2)OC1=O`, `CC(=O)c1c(C)[nH]c2ccccc2c1=O` is lower in z-score: 0.519 for the first, 0.0795 for the second.

Going from `CC(C)n1nnnc1SCC(=O)NCCc1ccccc1` to `O=C(CSc1nnc(-c2cccs2)n1Cc1ccccc1)NCc1ccc2c(c1)OCO2`, the z-score falls from -0.179 to -0.89.

Compared with `CCc1nc2c(c(=O)c3ccccc3n2C)c(=O)n1C1CCCCCC1`, `COc1ccc(NC(=O)CSc2nnc(C3CCCCC3)n2-c2ccccc2)cc1` is higher in z-score: -2.48 for the first, -1.1 for the second.

Going from `COc1ccccc1C(=O)Nc1ccc(C(=O)N2CCCC2)cc1` to `COc1ccccc1C(=O)O/N=C(\N)c1ccc(Cl)cc1`, the z-score falls from -0.0336 to -0.217.

Compared with `O=C(CSc1ncccn1)Nc1ccc(S(=O)(=O)N2CCCCC2)cc1`, `COc1ccc(S(=O)(=O)N(CC(=O)Nc2ccc(S(=O)(=O)N3CCOCC3)cc2)c2ccccc2)cc1` is lower in z-score: -0.0172 for the first, -0.235 for the second.

Compared with `CCCCn1c(SCc2nc3ccccc3s2)nc2ccccc2c1=O`, `Cc1ccccc1OCC(=O)Nn1c(COc2ccccc2)nc2ccccc2c1=O` is lower in z-score: 0.425 for the first, 0.187 for the second.

Compared with `COc1cccc(NC(=O)CSc2ccc3nnc(-c4ccncc4)n3n2)c1`, `COc1cccc(N2CC(C(=O)Nc3nnc(SCc4cccnc4)s3)CC2=O)c1` (centres undefined) is higher in z-score: -0.0299 for the first, 0.711 for the second.

Compared with `Cc1ccc(Nc2nc(Cl)nc(N(C)C#N)n2)cc1`, `COC(=O)Cn1c(CCS(=O)(=O)c2ccc(C)cc2)nc2ccccc21` is lower in z-score: -0.567 for the first, -2.31 for the second.

Compared with `O=S(=O)(N1CCCCC1)N1CCN(c2ccccc2F)CC1`, `CC(C)C(NS(=O)(=O)c1ccc2c(c1)oc(=O)n2C)C(=O)N1CCN(c2ccccc2F)CC1` (centres undefined) is lower in z-score: -0.115 for the first, -0.133 for the second.

Going from `COc1ccc(/C=C/C(=O)N2c3ccccc3Sc3ccc(C(F)(F)F)cc32)cc1` to `Cn1cnnc1SC(C(=O)Nc1cccc(C(F)(F)F)c1)c1ccccc1` (centres undefined), the z-score falls from 0.00546 to -0.377.

Going from `CNC(=O)COc1ncnc2sc(C)c(C)c12` to `CCOC(=O)Nc1cc(C)ccc1OC`, the z-score falls from 0.311 to 0.0736.

First: Cc1ccc(N2N=C(c3ccc(Br)cc3)CCC2=O)cc1
Second: C/C(=N\NC(=O)c1ccc(C)cc1C)c1ccc(-n2ccnc2)cc1
The z-score of the first is lower: -0.188 for the first, -0.0942 for the second.

Going from `Cc1ccc(C(=O)N/N=C\c2ccc[nH]2)cn1` to `Cc1cc(C(=O)N/N=C/c2cc(Br)cc(Br)c2OC(=O)c2ccccc2)n[nH]1`, the z-score rises from -0.399 to -0.0369.

Compared with `O=C(Nc1ccc(Cl)c(Cl)c1)Nc1nnc(CC2=CCCCC2)s1`, `Cn1cnnc1SC(C(=O)Nc1cc(Cl)cc(Cl)c1)c1ccccc1` (centres undefined) is higher in z-score: 0.0021 for the first, 0.103 for the second.

First: CCN(CC)S(=O)(=O)c1ccc(Cl)c(OC)c1
Second: CCN(CC)/C(=N/O)NC(=O)NS(=O)(=O)c1ccc(C)cc1
The z-score of the first is lower: -0.331 for the first, 0.0872 for the second.

First: CCCOC(=O)CC1C(=O)NCCN1Cc1ccc(F)cc1 (centres undefined)
Second: CCCC(=O)Nc1ccc(C(=O)NCCc2ccc(F)cc2)cc1
The z-score of the first is lower: -0.392 for the first, 0.0822 for the second.

Compared with `CC(C)(C)c1ccc(-c2nc3c(C#N)c(-c4ccc5c(c4)OCO5)ccn3n2)cc1`, `O=C(NCc1ccc(Cl)cc1)c1cc(=O)nc2sc(-c3ccccc3)nn12` is higher in z-score: -0.0444 for the first, 0.238 for the second.

First: CC(C)NCC(O)COCCOc1ccc(C(C)(C)C)cc1 (centres undefined)
Second: COc1ccc(OCCC(=O)OCc2c(C)noc2C)cc1
The z-score of the first is higher: 0.0357 for the first, -0.229 for the second.

Going from `CCOC(=O)c1ccc2ncc(C(=O)OCC)c(NCCCN3CCOCC3)c2c1` to `O=C(NCCCN1CCOCC1)c1cc(-c2ccc(O)cc2)on1`, the z-score falls from -0.106 to -0.342.

Going from `Cc1cc(Cl)ccc1NC(=S)NCc1ccccc1Cl` to `CN(C(=O)Nc1ccc(Cl)cc1Cl)[C@H]1c2cc(Br)ccc2OC[C@H]1CO`, the z-score falls from 0.000558 to -0.211.

Going from `COc1ccc(S(=O)(=O)NCC(=O)N(CC(=O)NCC2CCCO2)c2cc(C)ccc2C)cc1` (centres undefined) to `Cc1ccc(S(=O)(=O)NCC(=O)N(CC(=O)NCc2ccccc2)CC2CCCO2)cc1` (centres undefined), the z-score falls from 0.673 to -0.0118.

Compared with `O=C(O)c1ccnc(Cl)c1`, `CCC(C)NC(=O)CSc1ncccc1C(=O)O` (centres undefined) is higher in z-score: -0.0797 for the first, 0.263 for the second.

Going from `O=C(O)CCC(=O)NCc1ccc(F)cc1` to `COc1ccc(CCN2C(=NC(=O)CCC(=O)O)SC3CS(=O)(=O)CC32)cc1` (centres undefined), the z-score falls from 0.241 to -0.152.

First: COc1ccc(/C(N)=N/OC(=O)Oc2ccccc2)cc1OC
Second: CCOC(=O)CN1C(=O)C(C)(C)Oc2ccc(C(=O)Nc3ccccc3OC)cc21
The z-score of the first is lower: -0.183 for the first, 2.42 for the second.

Compared with `N/C(Cc1ccc([N+](=O)[O-])cc1)=N\OC(=O)Cc1ccccc1`, `Cc1cccc(OCC(=O)NCC(=O)N/N=C/c2cc(Br)ccc2OCc2ccccc2)c1` is lower in z-score: 0.0239 for the first, -0.118 for the second.

Compared with `NC(=O)Cc1cn(-c2ncc(C(F)(F)F)cc2Cl)c2ccccc12`, `O=C(O)c1ccccc1NS(=O)(=O)c1cccc(C(F)(F)F)c1` is lower in z-score: -0.00807 for the first, -0.814 for the second.

Going from `CCOc1cccc2cc(-c3csc(NC(=O)CCC(=O)N4CCC(C)CC4)n3)c(=O)oc12` to `CCOC(=O)CC(=O)CSc1nc2c(sc(=S)n2-c2ccccc2)c(=O)[nH]1`, the z-score falls from 0.0524 to -0.366.

First: Cc1sc(/N=C/c2ccccc2O)c(C#N)c1C
Second: CC(=O)c1c(C(C)=O)c(C)n(NC(=O)c2ccccc2O)c1C
The z-score of the first is higher: -0.0929 for the first, -0.206 for the second.

First: O=C(Oc1ccc2c(c1)O/C(=C\c1ccncc1)C2=O)c1ccccc1
Second: Cc1ccc(C)c(N2CCN(C(c3ccncc3)c3nnnn3Cc3ccccc3)CC2)c1 (centres undefined)
The z-score of the first is lower: -0.47 for the first, 0.281 for the second.

Going from `Cc1cccc(OCCn2c(=S)[nH]c3ccccc32)c1` to `CCCCCOc1ccc(/C=C/C(=O)NCCc2nc3ccccc3[nH]2)cc1OC`, the z-score falls from 2.83 to -0.533.

First: CCOC(=O)/C(C#N)=C\c1ccc(CC)s1
Second: CCOc1ccc(C(C#N)N2CCOCC2)cc1OC (centres undefined)
The z-score of the first is higher: 0.605 for the first, 0.523 for the second.

First: COC(=O)c1ccc2ccn(CC(=O)NC3CCCCC3)c2c1
Second: O=C(CN1C(=O)c2ccccc2S1(=O)=O)NC1CCCC1
The z-score of the first is higher: 0.45 for the first, -0.378 for the second.

Compared with `COC(=O)c1ccccc1NC(=O)CSc1n[nH]c(CC(C)C)n1`, `C=CCn1c(N)c(C(=O)OCC(C)C)c2nc3ccccc3nc21` is lower in z-score: 0.556 for the first, -2.53 for the second.

First: COc1ccc(C(=O)CSc2nnc(C(CO)NC(=O)c3ccc(OC)cc3)n2C)cc1 (centres undefined)
Second: Cc1ccc(C)n1NC(=O)c1ccc(O)cc1
The z-score of the first is lower: 0.235 for the first, 0.257 for the second.

First: c1ccc(-c2cc(N3CCCCC3)ncn2)cc1
Second: COc1cccc(NC(=O)C(NCC2CCCCC2)c2ccccc2)c1 (centres undefined)
The z-score of the first is lower: -0.267 for the first, -0.0907 for the second.

Compared with `Cc1cc(C)nc(N/N=C/c2ccccc2OCc2ccccc2)n1`, `Cc1occc1C(=O)NNC(=O)C(c1ccccc1)c1ccccc1` is lower in z-score: 0.694 for the first, -0.78 for the second.

Compared with `COc1cccc(C(=O)Nc2ccc3nc(N4CCOCC4)cc(C)c3c2)c1`, `c1ccc(N2CCOCC2)c(Nc2nc3ccccc3n3cnnc23)c1` is higher in z-score: -2.16 for the first, 0.446 for the second.

Compared with `CCCN(Cc1ccc(N(CC)CC)cc1)CC1CC1`, `O=C(NCC1CCCO1)c1ccc(CS(=O)(=O)Cc2ccc(F)cc2)o1` (centres undefined) is lower in z-score: 2.1 for the first, 0.407 for the second.

Going from `CNC(=O)c1cc2ccc(OC)cc2oc1=O` to `COc1ccc(-c2cc(=O)[nH]c(=O)[nH]2)cc1`, the z-score rises from -0.333 to -0.123.

First: O=C(O)C1(NS(=O)(=O)c2ccc(Cl)cc2)CCCCC1
Second: CCNS(=O)(=O)c1ccc(NC(=O)c2cncc(Br)c2)cc1
The z-score of the first is higher: -0.168 for the first, -0.176 for the second.

Going from `CCCOc1ccc2c3c(c(=O)oc2c1OCCC)CCC3` to `CC(=O)COc1ccc2c3c(c(=O)oc2c1C)CCCCC3`, the z-score rises from -0.529 to -0.492.

Compared with `CC(C)Nc1nc(NC(N)=S)nc(NC(C)C)n1`, `Cc1cc(NS(=O)(=O)c2ccc(NC(=O)COc3ccccc3C(C)C)cc2)no1` is higher in z-score: -0.369 for the first, -0.0255 for the second.

Compared with `CC(=O)Nc1cc2c(cc1C(=O)c1ccccc1)OCCO2`, `O=C(Nc1ccccc1C(=O)NCCN1CCOCC1)c1ccco1` is higher in z-score: -0.506 for the first, -0.118 for the second.

Going from `CCCS(=O)(=O)c1nc(S(=O)(=O)c2ccc(C)cc2)c(NCCN2CCOCC2)s1` to `CCCN1CCN(CCCNC(=O)Cn2ncc3c4ccccc4n(C)c3c2=O)CC1`, the z-score rises from -0.364 to -0.237.

Going from `CC(C)NC(=O)COC(=O)/C=C/c1ccco1` to `CCCCNC(=O)CNC(=O)c1cccs1`, the z-score rises from -0.222 to 0.132.

First: OC(Cn1cccn1)c1ccccc1 (centres undefined)
Second: O=C(c1ccco1)N1CCN(C/C=C/c2ccccc2)CC1
The z-score of the first is lower: -0.858 for the first, 1.1 for the second.

Going from `O=[N+]([O-])c1ccc(NC2CCCC2)cc1` to `COC(=O)Nc1ccc([N+](=O)[O-])cc1OC`, the z-score falls from -0.0863 to -0.117.

First: O=C(O)c1c(Cl)c(Cl)c(Cl)c(Cl)c1C(=O)N1CCOCC1
Second: CCOC(=O)N1CCN(C(=O)C(=O)Nc2ccc3nc4n(c(=O)c3c2)CCCCC4)CC1
The z-score of the first is higher: 0.376 for the first, -0.447 for the second.

Going from `COc1cccc(-c2cc3c(-n4cccc4)ncnc3o2)c1` to `CC1=NN(Cc2ccccc2)C(=O)C1C(c1ccc(Cl)cc1)C(C#N)C#N` (centres undefined), the z-score rises from -0.0571 to 0.0177.

First: CCN(CC)C(=O)c1c([N+](=O)[O-])c(C(C)(C)C)nn1C
Second: CCCCn1c(CCn2nc(C)c(Br)c2C)n[nH]c1=S
The z-score of the first is higher: 0.0173 for the first, -0.487 for the second.

Going from `Cc1ccc2nc(NC(=O)c3ccco3)sc2c1` to `C/C(=N\NC(=O)C1CC1(C)c1ccccc1)c1ccco1` (centres undefined), the z-score rises from -0.314 to -0.213.

Going from `COC(=O)Cc1c(C)nc2nc(NCc3ccccc3OC)[nH]n2c1=O` to `Cc1noc(C)c1S(=O)(=O)N1CCC(C(=O)N2CCN(C(=O)c3ccco3)CC2)CC1`, the z-score falls from -0.36 to -0.53.

With `O=C1Nc2ccc(Br)cc2/C1=N/N=C/C1=C(N2CCOCC2)C(=C\c2ccccc2)/CC1` the z-score was 0.35.

With `CN=C1c2c(-c3ccccc3)c3cc(OC)ccc3n2CCN1C` the z-score was active: 4.2.
